Experiment [1] has as its target GAL4 DNA-binding domain-fused full-length androgen receptor (AR), pBIND vector (UniProt P10275). Briefly: two-hybrid; mammalian two-hybrid in HEK 293 cells: VP16-PAK6 full length or deletion mutants (pACT), GAL4 DBD-AR (pBIND), pG5-Luc reporter, renilla control; androgen treatment not stated for this panel.
The target of experiment [2] is GAL4 DNA-binding domain-fused PAK6 wild type with HA tag, pBIND vector (UniProt Q9NQU5). Briefly: two-hybrid; mammalian two-hybrid in HEK-293 cells: VP16-HA-AR (pACT), GAL4 DBD-HA-PAK6-wt, -5A or -5E (pBIND), pG5-Luc; vehicle control or DHT (10 nM) for 20 h, dual luciferase assay.
Experiment [3] concerns the target T1, GAL4 DNA-binding domain-fused PAK6-5A with HA tag, pBIND vector (UniProt Q9NQU5).
T1 sequence: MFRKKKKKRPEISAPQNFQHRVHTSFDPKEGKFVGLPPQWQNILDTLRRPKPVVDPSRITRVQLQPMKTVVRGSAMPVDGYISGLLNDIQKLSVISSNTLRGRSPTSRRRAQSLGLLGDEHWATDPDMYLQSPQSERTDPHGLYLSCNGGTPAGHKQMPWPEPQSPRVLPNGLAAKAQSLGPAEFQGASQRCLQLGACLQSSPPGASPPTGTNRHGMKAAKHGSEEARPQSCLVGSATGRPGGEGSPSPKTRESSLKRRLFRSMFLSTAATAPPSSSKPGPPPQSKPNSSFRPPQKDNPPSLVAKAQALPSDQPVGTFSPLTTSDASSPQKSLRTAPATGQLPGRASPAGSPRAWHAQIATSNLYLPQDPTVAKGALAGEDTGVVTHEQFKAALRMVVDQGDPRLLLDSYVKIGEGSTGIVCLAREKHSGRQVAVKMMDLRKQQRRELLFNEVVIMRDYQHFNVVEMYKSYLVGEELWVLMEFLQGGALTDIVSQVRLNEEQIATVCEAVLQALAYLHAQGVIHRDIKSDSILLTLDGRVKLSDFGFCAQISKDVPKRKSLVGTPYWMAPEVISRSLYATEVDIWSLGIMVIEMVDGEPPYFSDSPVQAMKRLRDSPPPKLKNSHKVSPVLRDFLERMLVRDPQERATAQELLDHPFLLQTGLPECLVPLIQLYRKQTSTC
The description is as above.

The chains behind the UniProt entries cited, without tags or fusion partners.
UniProt P10275: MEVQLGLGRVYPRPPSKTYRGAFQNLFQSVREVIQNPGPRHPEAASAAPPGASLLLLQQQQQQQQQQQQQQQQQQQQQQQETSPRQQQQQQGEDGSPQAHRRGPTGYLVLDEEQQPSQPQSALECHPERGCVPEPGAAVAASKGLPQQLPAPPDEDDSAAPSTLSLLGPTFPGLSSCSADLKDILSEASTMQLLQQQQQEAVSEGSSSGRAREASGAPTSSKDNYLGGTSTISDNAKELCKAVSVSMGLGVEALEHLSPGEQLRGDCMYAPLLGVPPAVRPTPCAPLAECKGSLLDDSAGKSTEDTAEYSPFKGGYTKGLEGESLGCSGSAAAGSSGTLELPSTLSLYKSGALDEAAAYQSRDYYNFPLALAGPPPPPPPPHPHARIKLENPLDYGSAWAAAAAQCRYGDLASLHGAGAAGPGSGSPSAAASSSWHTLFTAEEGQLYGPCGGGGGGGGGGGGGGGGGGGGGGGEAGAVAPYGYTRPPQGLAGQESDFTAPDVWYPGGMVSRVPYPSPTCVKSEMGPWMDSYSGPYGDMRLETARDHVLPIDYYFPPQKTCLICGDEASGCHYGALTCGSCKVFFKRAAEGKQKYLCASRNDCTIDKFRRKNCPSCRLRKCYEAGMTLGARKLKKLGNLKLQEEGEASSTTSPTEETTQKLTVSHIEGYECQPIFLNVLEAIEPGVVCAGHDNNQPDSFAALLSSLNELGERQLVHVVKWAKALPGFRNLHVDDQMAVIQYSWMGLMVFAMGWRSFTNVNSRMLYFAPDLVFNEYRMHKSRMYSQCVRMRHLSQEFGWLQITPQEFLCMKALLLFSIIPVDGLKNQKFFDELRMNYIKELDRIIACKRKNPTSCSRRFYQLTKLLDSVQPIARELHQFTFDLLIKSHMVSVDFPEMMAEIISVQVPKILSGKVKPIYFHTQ

The target of experiment [4] is T2, PAK6-5A, expression vector for co-immunoprecipitation (UniProt Q9NQU5).
T2 sequence: T1 sequence
Briefly: co-IP; as a4 but in the absence of androgen (no DHT); anti-PAK6 immunoprecipitates probed for AR.

The target in experiment [5] is T2, PAK6-5A, expression vector for co-immunoprecipitation. Briefly: co-IP; reciprocal co-immunoprecipitation from HEK-293 cells co-transfected with AR and PAK6-WT, -5A or -5E, with 10 nM DHT, 20 h post-transfection; AR or PAK6 precipitated with specific antibodies, western blot for the other. In general terms: Immunoblotting shows a protein as a band on a membrane.
Experiment [6] concerns the target T3, PAK6-5E, expression vector for co-immunoprecipitation (UniProt Q9NQU5).
T3 sequence: T1 sequence with A308E, A326E, A346E, A354E, A360E
Described as above.

The target of experiment [7] is PAK6-WT, expression vector for co-immunoprecipitation (UniProt Q9NQU5). The description is as above.

Residue numbers refer to the chain shown, from its start. Results are given in words; binding and its absence hold for the method and conditions named. For some of these results: Binding seen in cells or lysates may run through a third protein. Some entries that bind do so weakly or less than the wild type. For some of these results: Tags and fused reporters may be left off the sequences shown.

On to “VP16-fused full-length PAK6 (p21-activated kinase 6), pACT vector (from UniProt Q9NQU5 1-681)”, for which the binding entry in experiment [1] is reported as “binds”.

Consider “VP16-fused full-length androgen receptor (AR) with HA tag, pACT vector (from UniProt P10275 1-920)”, for which the binding result in experiment [2] and in experiment [3] was “binds” each time.

“androgen receptor (AR), expression vector for co-immunoprecipitation (from UniProt P10275 1-920)”: the binding result was “binds weakly” in experiment [4], “binds” in experiment [5], “no binding” in experiment [6] and “binds” in experiment [7].

Source of the values: PMC3795072.
